The results in this text go back to the antibiotic and cytotoxicity screens of Wong et al. (2023).

For one assay, the system named is HSkMC. Put plainly: cytotoxicity call (relative viability < 0.9). To be noted: 10 µM.
The test system of a further assay is HepG2. Put plainly: cytotoxicity call (relative viability < 0.9). To be noted: 10 µM.
Another assay has as its system S. aureus RN4220. Put plainly: growth inhibition call (relative growth <= 0.2). To be noted: 50 µM.

Each structure is given as a SMILES string. This is one part of the list.

On to `CN(C)CC(=O)N[C@@H]1CC[C@H](CCNS(=O)(=O)c2ccccc2)O[C@@H]1CO`, for which the cytotoxicity call in the assay on HSkMC and in the assay on HepG2 was “inactive” each time. In the assay on S. aureus RN4220, the growth inhibition call is “inactive”.

On to `Cc1noc(C)c1S(=O)(=O)N(C)C[C@H]1Oc2ccc(NS(=O)(=O)c3cn(C)cn3)cc2C(=O)N([C@H](C)CO)C[C@H]1C`, for which the cytotoxicity call with HSkMC and with HepG2 was “inactive” in each case. Also, in the assay with S. aureus RN4220, the growth inhibition call was “inactive”.

Take `COc1cccc(O)c1O`: in the assay with HSkMC, the cytotoxicity call is “inactive”. For the same compound, the cytotoxicity call in the assay on HepG2 is “active”. For the same compound, the growth inhibition call in the assay on S. aureus RN4220 was “inactive”.

As to `COCC#Cc1cnc2c(c1)C(=O)N([C@@H](C)CO)C[C@@H](C)[C@@H](CN(C)C(=O)CCN1CCCCC1)O2`, the cytotoxicity call with HSkMC and in the assay on HepG2 was “inactive” throughout. Moreover, in the assay on S. aureus RN4220, the growth inhibition call is “inactive”.

On to `C[C@@H]1CN([C@H](C)CO)C(=O)c2cccc(NS(C)(=O)=O)c2O[C@@H]1CN(C)Cc1ccc(C(F)(F)F)cc1`, for which the cytotoxicity call with HSkMC and with HepG2 was “inactive” in each case. Moreover, in the assay on S. aureus RN4220, the growth inhibition call is “inactive”.

On to `C[C@@H]1CN([C@@H](C)CO)C(=O)Cc2cc(NC(=O)Nc3cccc4ccccc34)ccc2O[C@H]1CN(C)Cc1ccc(Cl)c(Cl)c1`, for which the cytotoxicity call in the assay with HSkMC and in the assay on HepG2 was “inactive” each time. For the same compound, in the assay on S. aureus RN4220, the growth inhibition call was “inactive”.

With `C[C@@H]1CN([C@@H](C)CO)C(=O)c2cc(NC(=O)Nc3ccccc3)ccc2O[C@H]1CN(C)CC1CCCCC1`, the cytotoxicity call in the assay on HSkMC and in the assay with HepG2 was “inactive” each time. For the same compound, in the assay on S. aureus RN4220, the growth inhibition call is “inactive”.

Turning to `CN1CCN(C(=O)C[C@H]2C=C[C@H](NS(=O)(=O)c3cccc(F)c3)[C@@H](CO)O2)CC1`, the cytotoxicity call with HSkMC and with HepG2 was “inactive” throughout. Further, the growth inhibition call in the assay with S. aureus RN4220 was “inactive”.

For the compound `C[C@@H]1CN([C@H](C)CO)C(=O)c2cc(NC(=O)Nc3ccc(F)cc3)ccc2O[C@H]1CN(C)Cc1ccc(-c2ccccc2)cc1`, the cytotoxicity call in the assay on HSkMC was “active”. Also, the cytotoxicity call with HepG2 was “inactive”. Also, the growth inhibition call in the assay on S. aureus RN4220 is “inactive”.

As for `CC(=O)NCCCC[C@@H]1NC(=O)[C@@H]2C[C@H](C(=O)NCCCCCN)[C@H](c3cccc(OCCO)c3)N2C1=O`, the cytotoxicity call in the assay on HSkMC and in the assay on HepG2 was “inactive” in each case. In addition, in the assay on S. aureus RN4220, the growth inhibition call was “inactive”.

With `C[C@H](CO)N1C[C@H](C)[C@@H](CN(C)S(=O)(=O)c2cn(C)cn2)Oc2ccc(NC(=O)CCN3CCOCC3)cc2C1=O`, the cytotoxicity call in the assay on HSkMC and in the assay with HepG2 was “inactive” throughout. Also, the growth inhibition call in the assay on S. aureus RN4220 is “inactive”.

On to `COc1cccc(S(=O)(=O)N(C)C[C@@H]2OCc3cnnn3CCCC(=O)N([C@H](C)CO)C[C@@H]2C)c1`, for which the cytotoxicity call in the assay on HSkMC and in the assay on HepG2 was “inactive” in each case. Besides, the growth inhibition call in the assay on S. aureus RN4220 was “inactive”.

In the case of `C[C@@H]1CN([C@@H](C)CO)C(=O)Cc2cc(NC(=O)CCN3CCOCC3)ccc2O[C@@H]1CN(C)S(=O)(=O)c1ccc(F)cc1`, the cytotoxicity call with HSkMC and in the assay with HepG2 was “inactive” throughout. Moreover, in the assay on S. aureus RN4220, the growth inhibition call was “inactive”.

With `C[C@@H]1CN([C@@H](C)CO)C(=O)Cc2cc(NS(=O)(=O)c3cccs3)ccc2O[C@@H]1CN(C)CC1CC1`, the cytotoxicity call in the assay on HSkMC and in the assay with HepG2 was “inactive” throughout. For the same compound, in the assay with S. aureus RN4220, the growth inhibition call was “inactive”.

Take `COc1ccc(NC(=O)Nc2ccc3c(c2)C(=O)N([C@@H](C)CO)C[C@H](C)[C@@H](CN(C)S(=O)(=O)c2ccc(F)cc2)OCCCC[C@@H](C)O3)cc1`: the cytotoxicity call in the assay with HSkMC and in the assay on HepG2 was “inactive” each time. Besides, the growth inhibition call in the assay on S. aureus RN4220 was “inactive”.

Take `Cc1noc(C)c1S(=O)(=O)Nc1ccc2c(c1)C(=O)N([C@H](C)CO)C[C@H](C)[C@@H](CN(C)S(=O)(=O)c1ccccc1)O2`: the cytotoxicity call in the assay on HSkMC and in the assay with HepG2 was “inactive” in each case. Also, the growth inhibition call in the assay with S. aureus RN4220 is “inactive”.

As for `Cc1ccc(S(=O)(=O)N2C[C@H](O)COC[C@H]3O[C@@H](CC(=O)NCc4ccc5c(c4)OCO5)CC[C@@H]32)cc1`, the cytotoxicity call in the assay on HSkMC and with HepG2 was “inactive” throughout. In the assay with S. aureus RN4220, the growth inhibition call is “inactive”.

As for `C[C@@H]1CN([C@H](C)CO)C(=O)c2cc(NC(=O)C3CCCCC3)ccc2O[C@@H]1CN(C)S(=O)(=O)c1cn(C)cn1`, the cytotoxicity call in the assay with HSkMC and in the assay on HepG2 was “inactive” throughout. In addition, the growth inhibition call in the assay on S. aureus RN4220 was “inactive”.

On to `COc1ccc(CN(C)C[C@@H]2OCCCC[C@H](C)Oc3ccc(NC(=O)Cc4ccccc4)cc3C(=O)N([C@@H](C)CO)C[C@@H]2C)cc1`, for which the cytotoxicity call in the assay on HSkMC and in the assay with HepG2 was “inactive” each time. Further, the growth inhibition call with S. aureus RN4220 was “inactive”.

Take `CON=C(C(=O)NC1C(=O)N2C(C(=O)OCOC(=O)C(C)(C)C)=C(C=Cc3scnc3C)CSC12)c1csc(N)n1` (stereo unspecified): the cytotoxicity call in the assay on HSkMC and with HepG2 was “inactive” throughout. Besides, the growth inhibition call in the assay on S. aureus RN4220 is “active”.

As to `COc1ccc(S(=O)(=O)Nc2ccc3c(c2)C(=O)N([C@H](C)CO)C[C@H](C)[C@@H](CN(C)C(=O)Nc2ccccc2)OCCCC[C@@H](C)O3)cc1`, the cytotoxicity call in the assay on HSkMC and with HepG2 was “inactive” throughout. Besides, the growth inhibition call in the assay with S. aureus RN4220 was “inactive”.

Regarding `CC(C)NC(=O)N(C)C[C@H]1Oc2ccc(NC(=O)Cn3cnnn3)cc2C(=O)N([C@@H](C)CO)C[C@@H]1C`, the cytotoxicity call in the assay on HSkMC and with HepG2 was “inactive” throughout. For the same compound, the growth inhibition call in the assay on S. aureus RN4220 was “inactive”.

Turning to `NS(=O)(=O)c1cc(C2(O)NC(=O)c3ccccc32)ccc1Cl` (stereo unspecified), the cytotoxicity call with HSkMC and in the assay on HepG2 was “inactive” throughout. For the same compound, the growth inhibition call with S. aureus RN4220 is “inactive”.

Consider `COc1ccccc1CN1C[C@@H](C)[C@H](OC)CN(C)C(=O)c2ccc(NC(=O)Nc3ccccc3OC)cc2OC[C@H]1C`, for which the cytotoxicity call with HSkMC and with HepG2 was “inactive” in each case. Besides, the growth inhibition call with S. aureus RN4220 was “inactive”.

For the compound `CCC(=O)Nc1ccc(C)cc1C`, the cytotoxicity call in the assay on HSkMC (human skeletal muscle cells) and in the assay with HepG2 was “inactive” each time. The growth inhibition call with S. aureus RN4220 was “inactive”.

`Nc1ncnc2c1ncn2[C@H]1CCCO1`: the cytotoxicity call with HSkMC and in the assay with HepG2 was “inactive” in each case. Further, the growth inhibition call in the assay on S. aureus RN4220 was “inactive”.

For `C[C@H](CO)N1C[C@H](C)[C@H](CN(C)C(=O)Nc2ccc3c(c2)OCO3)OCCCC[C@H](C)Oc2ccc(NC(=O)CCCCCC(=O)Nc3ccccc3N)cc2C1=O`, the cytotoxicity call in the assay with HSkMC and in the assay with HepG2 was “inactive” in each case. In addition, the growth inhibition call with S. aureus RN4220 is “inactive”.
